The values that follow come from PubChem BioAssay AID1963576 (National Center for Advancing Translational Sciences (NCATS), 2024).

About 60 (0.1%) of roughly 46,000 compounds were called active. Another 3% or so got no clear call; they are omitted. Calls follow the shape of the dose curve; as a rule, active = well fitted inhibition curve with a large enough effect; inconclusive = small, poorly fitted or top-dose-only effect; inactive = no such curve, though single readings can be large or run the other way. Some of the results follow.

The nature of this assay: Primary qHTS assay for Inhibitors of ovarian cancer metastasis using an organotypic tumor microenvironment (TME) model. Also: nearly all actives have a fitted effect of over 65% in size.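 As to activity change, negative = inhibition: plate controls were DMSO wells for no effect and tomatine positive control wells for full effect.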 To be noted: SKOV3ip1-GFP adhesion/invasion on 3D omental model, fluorescence; series mostly up to 45.8 µM; activity change, negative = inhibition: at the top concentration. In short, it runs like this:
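qHTS, 4-pt dose (0.36-46 umol/L); SKOV3ip1-GFP, 1,200 cells/well, no FBS; primary omental fibroblast/mesothelial co-culture 48 h pre-grown; 2 h RT + 16 h 37 C; PBS wash, 4% PFA; GFP count 488/509 nm.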
As to `CCC(CC)C(=O)Nc1cc(-c2ccccc2F)nn1-c1ccccc1`, the “activity change, negative = inhibition” value is inactive: 5.1%.

In the case of `Cc1ccc(CNS(=O)(=O)c2cc3c(cc2Cl)NC(=O)CO3)o1`, the “activity change, negative = inhibition” value is inactive: -17.1%.

Regarding `NS(=O)(=O)c1ccc(NC(=O)CSc2ccc3ccccc3n2)cc1`, the “activity change, negative = inhibition” value was inactive: -0.984%.

On to `COc1ccccc1C(=O)Nc1ccc(C(=O)OCc2cc(=O)n3nc(C)sc3n2)cc1`, for which the “activity change, negative = inhibition” value was inactive: -1.97%.

Consider `CCN(CC)C(=O)Cn1c(=O)n(-c2ccccc2)c(=O)c2c3c(sc21)CCC3`, for which the “activity change, negative = inhibition” value was inactive: 1.62%.

As to `Cc1ccc(CNC(=O)c2nnc(Cc3ccc(Cl)cc3)o2)cc1`, the “activity change, negative = inhibition” value is inactive: 1.38%.

As to `COc1ccc(CCN2C(=O)CN(C3CCCCCC3)C(=O)C2c2ccc(OC(C)C)c(OC)c2)cc1OC` (stereo not drawn), the “activity change, negative = inhibition” value is inactive: 7.21%.

Regarding `CN(C(=O)c1ccc2c(Cl)c3c(nc2c1)CCC3)c1ccccc1F`, the “activity change, negative = inhibition” value is inactive: 6.98%.

Take `Cc1csc2nc(-c3ccc(NS(=O)(=O)c4cc(F)ccc4F)cc3)cn12`: the “activity change, negative = inhibition” value is inactive: -6.21%.

For `Cc1ccccc1/C=C(\C#N)c1nc(-c2ccc(Cl)cc2)cs1`, the compound was classed as inactive.

For `CC1CN(C(=O)N2CCC(C(=O)NCCCc3ccccc3)CC2)c2ccccc2O1` (stereo not drawn), the outcome was inactive.

`COc1ccc2c(c1)Cc1sc(NC(=O)c3cccc(Br)c3)nc1-2`: the “activity change, negative = inhibition” value is inactive: -16.4%.

With `CC(=O)N1CCc2c(sc3c2c(=O)n(Cc2ccccc2)c(=O)n3Cc2cc(C)ccc2C)C1`, the outcome was inactive.

In the case of `Cc1ccc(CNC(=O)CN2C(=O)C3(SCC(=O)N3c3ccc(F)cc3)c3ccccc32)cc1` (stereo not drawn), the “activity change, negative = inhibition” value was inactive: -12.4%.

Consider `Cc1ccc(NC(=O)Cn2c(-c3cncs3)nc3ccccc32)c(Br)c1`, for which the “activity change, negative = inhibition” value is inactive: -8.69%.

In the case of `CCCCCn1c(CCNC(=O)c2cccc(C)c2)nc2ccccc21`, the call was inactive.

Consider `CCOc1ccc(Nc2oc(/C=C/c3cccc(OC)c3)nc2C#N)cc1`, for which the “activity change, negative = inhibition” value was inactive: 12.1%.

As to `CCCCOc1ccc(CNC(=O)c2ccc3c(c2)N(C)C(=O)C2CCCCN32)cc1` (stereo not drawn), the call was inactive.

With `CCC(=O)N1CCc2cc(CNS(=O)(=O)c3cccs3)ccc21`, the compound was classed as inactive.

Turning to `Cc1cc(C)c2c(n1)sc1c(=O)n(-c3ccccc3C(F)(F)F)nnc12`, the “activity change, negative = inhibition” value is inactive: -0.437%.

With `CCSc1nc2c([nH]c3ccccc32)c(=O)n1-c1ccc(F)cc1`, the outcome was inactive.

On to `CCc1ccc(CNC(=O)C2CCCN(S(=O)(=O)c3ccc4c(ccn4C)c3)C2)cc1` (stereo not drawn), for which the “activity change, negative = inhibition” value was inactive: -26.1%.

For the compound `COc1ccc(CNC(=O)CCc2nc(-c3ccc(OC)cc3)no2)cc1`, the “activity change, negative = inhibition” value is inactive: -0.922%.

`CCOC(=O)C(CC)Sc1c(CC)cnc2c1c(=O)n(C)c(=O)n2C` (stereo not drawn): the “activity change, negative = inhibition” value is inactive: 5.51%.

Turning to `Cc1ccc(OCCSc2nc3ccc(NC(=O)c4ccc(F)cc4)cc3s2)cc1`, the compound was called inactive.

Turning to `COc1cccc(-c2cn3ncsc3n2)c1`, the “activity change, negative = inhibition” value was inactive: -4.47%.

Regarding `COc1ccc(-c2c(C)c3ccc(O)c(CN4CCCC4)c3oc2=O)cc1OC`, the “activity change, negative = inhibition” value is inactive: -0.873%.

Regarding `Cc1ccc(Cc2cn3cc(-c4ccc(F)cc4)nc3s2)cc1`, the compound was called inactive.
